# Data: the supplement of paper PMC3334620
# Over roughly 33,000 sequences, “E-score (-0.5 to 0.5)” has its median near -0.016; the highest 2% begin near 0.32. The list shows a part of the results.
# Target: T1, Stp1 (UniProt B3LFK1)
# T1 sequence: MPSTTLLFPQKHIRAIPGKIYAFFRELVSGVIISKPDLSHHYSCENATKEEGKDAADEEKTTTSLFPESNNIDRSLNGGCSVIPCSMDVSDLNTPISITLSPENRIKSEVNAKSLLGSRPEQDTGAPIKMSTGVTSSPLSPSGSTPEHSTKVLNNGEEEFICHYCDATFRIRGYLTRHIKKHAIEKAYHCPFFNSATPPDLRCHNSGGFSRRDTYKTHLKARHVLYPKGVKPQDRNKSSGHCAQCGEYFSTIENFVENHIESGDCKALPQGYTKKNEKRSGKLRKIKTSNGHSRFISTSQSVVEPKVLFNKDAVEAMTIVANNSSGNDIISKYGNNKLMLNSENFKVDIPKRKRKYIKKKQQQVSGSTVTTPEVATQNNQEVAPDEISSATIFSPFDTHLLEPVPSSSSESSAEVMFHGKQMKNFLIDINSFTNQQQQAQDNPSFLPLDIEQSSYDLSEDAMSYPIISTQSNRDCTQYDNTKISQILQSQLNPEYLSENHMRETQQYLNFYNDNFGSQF
# Experiment: PBM E-score (8-mer binding enrichment) (E-score (-0.5 to 0.5)); higher = stronger / more preferred TF binding; most listed sequences are background and not binding sites
# Conditions: protein concentration: 200 nM; construct: GST-full length
# How it was run: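 Masliner-normalised scans of fluorescent anti-GST signal were the basis for scoring. That signal came from GST-tagged yeast transcription factors applied at about 100-200 nM to double-stranded universal all-10-mer Agilent arrays on fresh or once-stripped slides. Each ungapped eight-base word, pooled with its reverse complement, received an E-score from the Universal PBM Analysis Suite.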
row,Sequence,PBM E-score
1,AAGCTCGA,-0.0885
2,ACTGTTAC,-0.255
3,CTAATTCA,0.0962
4,CGTACAAG,0.227
5,CGCATGTA,0.0232
6,ATGTCGTG,-0.134
7,AGTTATAA,0.0453
8,GGTTTGGA,0.00126
9,ACCGCCTA,-0.179
10,ACAGCACC,-0.019
11,AGTTATGC,0.0354
12,CCATTTTC,0.121
13,CATATTAA,0.109
14,ACAGCCGG,0.161
15,ACCAAGCA,0.0083
16,ATACACTC,0.228
17,CTCAAGGC,0.0214
18,ATGTGCTC,0.0215
19,ATCCCATG,-0.207
20,CAACGTCG,-0.0734
21,GACGCGGA,0.136
22,GTCCTCAA,0.0371
23,AATTCTGA,0.131
24,CGGGTCCC,-0.319
25,GTGAGGGA,-0.292

row,Sequence,PBM E-score
1,TAAGCACA,0.267
2,ATGGAGTA,0.00168
3,AGGAGAAC,-0.0809
4,CGTTGTAC,0.15
5,CCGCATAC,0.237
6,GGTCAGCA,-0.193
7,GCGTATAC,0.127
8,ATCCAGCA,0.0312
9,ATAGGCCC,-0.349
10,AAGCAATA,0.0465
11,AACGGCTA,0.372
12,CTCGTCTA,-0.0419
13,AAGTACAC,0.145
14,GTCCTCAC,0.169
15,GGCAGAAA,0.3
16,CGCTAGTC,-0.302
17,GACGAACA,0.084
18,ATTCAAGA,0.111
19,AGTTGGGG,-0.209
20,CAAAAGGA,0.0474
21,CGCACATA,-0.0825
22,AGAGAGCT,-0.242
23,CCAGGCCG,0.0146
24,ACTGCTCA,0.239
25,AGATTCCG,0.114

row,Sequence,PBM E-score
1,GGTCCTTA,-0.161
2,GCGGGCCC,-0.0768
3,ATTCCCAA,-0.0332
4,CCCTCTTC,-0.308
5,TGACTCAA,0.107
6,ATCCAAAT,0.058
7,ATGGGATA,-0.303
8,GAAAACCA,0.135
9,ATCGCATA,0.00415
10,GTTTTTCA,0.159
11,ACGAGGAT,-0.102
12,AGTTCCGC,0.135
13,AGCGTCCT,-0.272
14,CTCCTTAC,-0.0976
15,ACATTAAC,0.0825
16,GTGACAGA,-0.0145
17,ACTGAACG,0.0829
18,ATTGTACA,0.0359
19,TTATGCAA,-0.0234
20,AAGTACGC,-0.00925
21,ACGCTGGC,-0.0221
22,AACAGTAC,0.0276
23,CTTGAGGC,-0.136
24,CCGACCCA,-0.0432
25,CCCCTGCG,-0.279

row,Sequence,PBM E-score
1,GACTGTGC,-0.00258
2,ACGGGCCA,-0.0905
3,CAAAGGCC,-0.166
4,CGCCGGCA,0.0879
5,GCTGCACA,-0.0488
6,ACTTGAGG,-0.181
7,CAAGGACG,-0.0482
8,ACCTAACA,0.0612
9,AAAAAAAC,0.0973
10,ACCCCGTA,0.0799
11,GAAACGAC,0.0801
12,CCTTTTTC,0.104
13,GTAGTTTA,0.0789
14,GAATAGCA,-0.0635
15,GAAATCTA,0.122
16,AGCACAGA,0.0637
17,AGACTTTA,-0.0614
18,AGGGAATG,-0.0516
19,ATGTCTGG,0.0261
20,AGAATTCT,0.211
21,CCTGTCGC,0.0227
22,AGACAGTG,-0.123
23,AATTGTCC,-0.0384
24,ACAGTACA,-0.0898
25,AGATCGGA,-0.143

row,Sequence,PBM E-score
1,CCTGATTA,-0.0334
2,TCGAGCGA,0.0323
3,CAAGTATG,0.115
4,CCGCACAC,0.214
5,CAAATCAA,0.234
6,ACACAAAG,0.131
7,ATACACTA,0.00137
8,AGCCTCCC,-0.277
9,CACACTCA,0.0928
10,AATAGGGT,-0.15
11,CCGACGCC,0.197
12,CCGACTGA,-0.059
13,GCCCTCGC,-0.0225
14,GTGTATAA,-0.0455
15,ATGTGGCG,0.322
16,CCCGGGCC,-0.151
17,AAAAGCCT,-0.0406
18,ATAGTCAT,-0.11
19,ATTCGCGA,-0.0465
20,CCCCCCCG,-0.397
21,CCTTTAAC,0.155
22,AATCCTTA,-0.0134
23,ATTCAACA,0.193
24,GAAGTCAA,0.0839
25,AGCCTTTC,-0.0105

row,Sequence,PBM E-score
1,CGAATCCG,0.0661
2,CACGCTCC,0.00924
3,CAGATATA,0.111
4,ACCTTCAG,-0.156
5,CAGGCCGC,0.0538
6,GTAAATTA,0.0232
7,ATACCTTC,-0.106
8,TGGTTACA,-0.0623
9,ACCAGAAG,-0.145
10,ACAGACTA,0.00625
11,CGTATGAA,0.285
12,ATGGACTA,-0.151
13,AAACCCGC,0.229
14,CTTCTTTA,0.0599
15,CACACGAA,0.116
16,AAGGCGCG,0.4
17,ATTCCAAT,0.143
18,ATGCAATC,0.0729
19,ATGCCGAG,0.31
20,CCGGCTCA,0.0597
21,GCAAGTAA,0.0895
22,CTCGATTC,-0.0889
23,AACCGAAT,0.0369
24,ATCTGTCA,0.108
25,CTGCGAGC,0.043

row,Sequence,PBM E-score
1,AAATATCC,0.154
2,ACGCCGAC,0.204
3,CGGGTGGA,-0.162
4,TCGGTTAA,0.0071
5,ATTACGCC,0.0926
6,ATGGCTTC,0.111
7,ACTGAGAC,0.0346
8,CACCTTGG,-0.256
9,ACGTGGGC,0.0461
10,GCAGGCTA,-0.205
11,CTGCCGGA,0.02
12,AAATTGGT,0.18
13,ATTTCCGG,-0.0307
14,GTGTGGCA,0.224
15,ATCTTCAG,0.0977
16,CACAGGTA,-0.122
17,CTACCTAC,0.0793
18,GTGGAACA,-0.00491
19,CTGCCGGC,-0.0153
20,AGAAATTA,0.243
21,CAACGAAC,0.051
22,AGAGGAGA,-0.3
